# Out of some 110,000 compounds screened, about 230 (0.21%) showed an effect of 50% or more. This is one part of the list.
# Molecular target: DPAP1 (Plasmodium falciparum, UniProt Q8IIJ9)
# Assay: primary screen, percent inhibition; read by cleavage of a fluorogenic dipeptide substrate; higher = more effect of the substance
# Parameters: species or system P. falciparum D10 trophozoite lysates; single well
# 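Further: 30 min substrate incubation versus DMSO and 10 µM JCP410 controls.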
# Sequence of DPAP1 (Q8IIJ9 whole entry, looked up): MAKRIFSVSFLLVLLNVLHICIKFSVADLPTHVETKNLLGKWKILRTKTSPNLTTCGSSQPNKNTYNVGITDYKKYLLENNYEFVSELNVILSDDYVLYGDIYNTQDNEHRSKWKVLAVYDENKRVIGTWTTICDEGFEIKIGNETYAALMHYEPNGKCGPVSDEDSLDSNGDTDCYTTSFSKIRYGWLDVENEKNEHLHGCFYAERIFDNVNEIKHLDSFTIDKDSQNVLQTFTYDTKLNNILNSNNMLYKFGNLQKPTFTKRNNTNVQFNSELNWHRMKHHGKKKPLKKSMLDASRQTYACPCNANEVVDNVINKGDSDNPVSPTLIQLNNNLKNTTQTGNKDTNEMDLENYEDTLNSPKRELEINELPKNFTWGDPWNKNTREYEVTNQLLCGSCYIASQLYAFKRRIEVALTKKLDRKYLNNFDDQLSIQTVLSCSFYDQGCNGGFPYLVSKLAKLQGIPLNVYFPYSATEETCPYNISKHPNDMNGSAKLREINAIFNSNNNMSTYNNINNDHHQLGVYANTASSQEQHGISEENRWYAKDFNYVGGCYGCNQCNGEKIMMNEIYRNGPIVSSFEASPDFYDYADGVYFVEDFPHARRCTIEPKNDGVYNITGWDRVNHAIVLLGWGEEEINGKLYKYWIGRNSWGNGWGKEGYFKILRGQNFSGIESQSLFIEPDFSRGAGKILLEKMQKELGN
row,SMILES,% Inhibition @ 10 uM
1,CCOc1c(S(=O)(=O)NCc2ccco2)ccc(Cl)c1Cl,5.49%
2,CCOC(=O)N1CCc2[nH]c3ccc(C)cc3c2C1,-5.06%
3,Fc1cccc(Cl)c1C1C=C(c2cccnc2)Nc2nc3ccccc3n21 (centres unmarked),-5.05%
4,Cc1ccc(S(=O)(=O)NCCC(=O)NCc2nnc(O)c3ccccc23)cc1,2.99%
5,CCCCOc1ccc(C2C(=O)N(C3CCCCC3)CC(=O)N2C2CCCC2)cc1 (centres unmarked),-2.26%
6,CN1CCN(Cc2cccc(O)c2)CC1,-2.08%
7,CCCCN(CCCC)S(=O)(=O)c1cc(C(=O)OCC)n(C)c1,-1.06%
8,NC(=O)C1CCCN(Cc2ccccc2)C1 (centres unmarked),-1.21%
9,O=C(CC1Sc2ccc(C(F)(F)F)cc2NC1=O)Nc1ccc(Cl)cc1 (centres unmarked),-3.69%
10,COc1ccc(-c2nc(-c3cccc(OC)c3)nc3ccc4ccccc4c23)cc1,5.64%
11,CCCCCCNC(=O)Cc1nc2nc(C)cc(C)n2n1,1.27%
12,CC(C)CSc1nc(N2CCOCC2)c2c(c1C#N)CCCC2,-5.48%
13,Nc1nc(N)nc(C(c2ccccc2)c2ccccc2)n1,-2.42%
14,CCC(=O)C1=C(Nc2cccc3ccccc23)CC(C)(C)CC1=O,-1.64%
15,C/C(=C\C(=O)NCC(C)c1ccccc1)c1ccccc1 (centres unmarked),0.986%
16,CN(CC(=O)NCCN1CCC(Cc2ccccc2)CC1)S(=O)(=O)c1cccc2nsnc12,0.317%
17,CC(C)NC(=O)c1cc(-c2ccc(Cl)cc2)on1,-2.65%
18,CCOC(=O)c1c(N)sc2c(O)c(Br)ccc12,-4.3%
19,COc1ccc2cc(CN(Cc3ccco3)S(=O)(=O)c3ccc(C(C)=O)cc3)c(O)nc2c1,-2.84%
20,CCCCN(CCCNC(=O)c1ccc2nc(N3CCOCC3)sc2c1)Cc1ccccc1,3.3%
21,COc1ccc(-n2c(Cc3cccn3C)nnc2SCC(=O)Nc2nnc(C)s2)cc1,-7.89%
22,O=[N+]([O-])c1ccc(N2CCN(Cc3ccc(Br)s3)CC2)cc1,1.48%
23,NS(=O)(=O)c1ccc(CCNC(=O)c2ccccc2Cl)cc1,-6.6%
24,CC1CNC2=C(C(=O)Nc3cccc4ccccc34)C(=O)CC(c3ccc4c(c3)OCO4)N21 (centres unmarked),0.658%
25,CCOC12NC(=O)CC(=O)N1C(c1ccccc1)=CS2 (centres unmarked),10.4%
26,CC(=O)c1cc(-c2ccccc2)n(CCC(=O)NC2CCCc3ccccc32)c1C (centres unmarked),3.07%

row,SMILES,% Inhibition @ 10 uM
1,Cc1ccc(OC(C)C(=O)Nc2nccs2)cc1 (centres unmarked),-2.76%
2,CCN(Cc1ccccc1)Cc1ccncc1,-2.02%
3,CN(C)C(C#N)c1cn(C)c2ccccc12 (centres unmarked),1.67%
4,O=[N+]([O-])c1ccc(CS(=O)(=O)Nc2ccccc2Cl)cc1,-12.4%
5,COc1cc(C(=O)Nc2cccc(-c3nc4ccccc4[nH]3)c2)cc(OC)c1OC,-1.28%
6,O=S(=O)(c1ccccc1)N1C2C=CC(C2)C1(C(F)(F)F)C(F)(F)Cl (centres unmarked),2.19%
7,CSc1nc(N)c2c3c(sc2n1)CN(Cc1ccccc1)CC3,-1.66%
8,O=C1c2ccccc2C(=O)N1CCn1c2ccc(Cl)cc2c2nc3ccccc3nc21,-1.52%
9,CCC(=O)/C=C1\Sc2ccc(OC)cc2N1CCO,2.38%
10,CCCc1[nH]nc2c1C(c1ccc(C)o1)C(C#N)=C(N)O2 (centres unmarked),0.751%
11,Cc1ccc(C2CC(C(F)(F)F)n3ncc(C(=O)N(C)C4CCCCC4)c3N2)cc1 (centres unmarked),6.42%
12,CCOc1ccc(NC(=O)CN2C(=O)S/C(=C/c3cc(C)n(-c4cccnc4)c3C)C2=O)cc1,-0.088%
13,CC(C)C1C(=O)NC(=S)N(c2ccccc2)C1=O (centres unmarked),1.42%
14,CC1=C(C)OC(C)(C(=O)/C=C/c2ccccc2)CC1 (centres unmarked),-0.239%
15,CCc1nn(C(C)C(=O)N2CCc3ccccc3C2)c(=O)c2cc3occc3n12 (centres unmarked),1.38%
16,CC(=O)NC1(c2ccccc2)CC(C)N(C)CC1C (centres unmarked),-2.51%
17,Cc1onc(-c2ccccc2Cl)c1C(=O)N1CCN(c2cccc(Cl)c2)CC1,-3.35%
18,Cc1nn(CCCC(=O)NCc2ccc(Cl)cc2)c(=O)c2cc3sccc3n12,4.95%
19,O=C1NC(=O)N(Cc2ccccc2)C(=O)/C1=C\c1c[nH]c2ccccc12,5.3%
20,COc1ccc(NC(=O)c2cc(OC)c(OC)c(OC)c2)cc1,6.69%
21,Cc1cccc2sc(NC(=O)c3ccccc3C(=O)O)nc12,6.12%
22,CCCNC(=O)Cc1c(C)nc2c(-c3ccc(F)cc3)c(C)nn2c1C,-4.24%
23,CCc1ccc(-c2nc(CN3CCC(C(=O)O)CC3)c(C)o2)cc1,1.42%
24,CCOc1cc(CNC(=O)c2ccc3nc(CC)c(CC)nc3c2)cc(OCC)c1OCC,-7.2%
25,Cc1cccc(NC(=O)COc2ccc3ccccc3c2)c1,-5.67%
26,COc1ccccc1/C=C/C1=NC(=C\c2ccc3c(c2)OCO3)/C(=O)O1,0.997%

row,SMILES,% Inhibition @ 10 uM
1,Cc1ccc2c(Cl)c(C(=O)O)sc2c1,3.44%
2,COc1ccc(CCNC(=O)C2CCN(S(=O)(=O)c3c(C)noc3C)CC2)cc1OC,3.59%
3,CCc1ccc(OCC(=O)Nc2sc3c(c2C(N)=O)CCCC3)c(Br)c1,-0.312%
4,COc1ccccc1CNC(=O)CCCn1ncn2c(cc3occc32)c1=O,-3.79%
5,O=C(O)C1CCCCN1Cc1ccccc1 (centres unmarked),-1.25%
6,CC(O)(c1ccc(Cl)cc1)C(CN1CCCCC1)c1ccccc1 (centres unmarked),1.67%
7,CC1=C(C(=O)Nc2ccc(C)cn2)C(c2cnn(C)c2)C2=C(O)CCCC2=N1 (centres unmarked),2.46%
8,O=C1C=C(N2CCOCC2)C(N2CCOCC2)=CC1=O,-1.84%
9,Cc1sc2c(c1C)c(=O)n(CCc1ccccc1)c(=O)n2CC(=O)c1ccccc1,14.2%
10,CCc1ccccc1N(CC(=O)Nc1ccc(C(C)C)cc1)S(C)(=O)=O,6.79%
11,CCCSc1nnc(NC(=O)c2cc(=O)c3cc(C)ccc3o2)s1,-3.24%
12,COc1ccccc1CNS(=O)(=O)c1ccc(OC)c(Cl)c1Cl,-2.83%
13,CC12CN3CC(C)(CN(C1)C3c1ccc3c(c1)OCO3)C2O (centres unmarked),-2.37%
14,O=C1c2cccnc2C(=O)N1c1cccc(-c2nc3ccccc3s2)c1,-0.865%
15,CCN1CCN(CC(=O)Nc2sc3c(c2C#N)CCC(C)C3)CC1 (centres unmarked),0.746%
16,N#Cc1c(Cl)nc(-c2ccccc2)c2c1CCC2,-5.72%
17,Nc1ccc(C(=O)Nc2cccc(Cl)c2)cc1,2.37%
18,CC(=O)c1cccc(NC(=O)c2ccc(C)cc2)c1,1.35%
19,N#CCNC(=O)[C@H](CCSCc1ccccc1)NC(=O)c1ccccc1,2.86%
20,CCOc1ccc(C=C2C(=O)OC(c3ccccc3)OC2=O)cc1 (centres unmarked),-4%
21,COc1ccccc1/C=C/C1=NN(c2cccc(Cl)c2)C(c2ccccc2OC)C1 (centres unmarked),2.02%
22,CCOc1ccc(-n2c(C)c(C(=O)OC)c3cc(O)ccc32)cc1,-8.71%
23,COc1ccc(CNc2nc(-c3ccco3)nn2C(=O)c2cccc(C)c2)cc1,0.248%
24,COc1ccc2nc(C)c(CC=C(Cl)Cl)c(O)c2c1,-0.711%
25,Cc1cs/c(=N\C(=O)c2ccccc2)n1-c1ccccc1,5.28%
26,CC(C)Oc1c(C2(c3ccccc3)SCCCS2)c(=O)c1=O,-0.941%

row,SMILES,% Inhibition @ 10 uM
1,Cc1nn(CCC(=O)NCc2ccccc2Cl)c(=O)c2nn(-c3ccccc3)c(C)c12,-5.54%
2,CCOC(=O)c1c(C)[nH]c(C)c1S(=O)(=O)Nc1cccc(C)n1,0.882%
3,CC(C)C[C@H](NC(=O)OCCC1CCCCC1)C(=O)NCC#N,-6.68%
4,O=C(C1CCN(S(=O)(=O)N2CCCC2)CC1)N1CCc2ccccc2C1,2.18%
5,O=c1oc2ccc([N+](=O)[O-])cc2cc1-c1nc(-c2cccs2)cs1,3.03%
6,COCCNC(=S)NCCc1c(C)[nH]c2ccc(C)cc12,-2.16%
7,CC(=O)N1CCC(CC(NC(=O)c2ccccc2)C(=O)NCC#N)CC1 (centres unmarked),-3.7%
8,CC(C)c1ccc(/C=C/C(=O)Nc2ccc(F)cc2)cc1,-2%
9,O=C1C2=C(c3ccccc3CC23CCCCC3)N2CCCN=C2N1Cc1ccccc1,-2.26%
10,CC1(C)CC2=Nc3c(c(=O)[nH]c(=O)n3Cc3ccccc3)C(c3cccs3)C2=C(O)C1 (centres unmarked),1.01%
11,Cc1nn(C)c(C)c1/C=C(\C(=O)c1ccc(Cl)cc1Cl)n1cncn1,0.76%
12,COc1cccc2c(O)c(NC(=O)NCCCO)cnc12,2.05%
13,CC1CCN(S(=O)(=O)c2ccc(NC(=O)COc3cccc4ccccc34)cc2)CC1,-5.32%
14,CC(=O)N1CCN(Cc2ccc(F)c(F)c2)CC1,-3.27%
15,Cc1ccc(S(=O)(=O)N2CCN(C(=O)CN3CCCC3)C2C(C)C)cc1 (centres unmarked),-2.26%
16,COc1cccc(C2=N/C(=C\C(C)=C\c3ccccc3)C(=O)O2)c1,-2.07%
17,N#Cc1ccccc1CO/N=C(\N)c1nonc1N,3.87%
18,O=C1CC(c2ccccc2)CC(O)=C1/C=N/c1cc(Br)ccc1O (centres unmarked),10.7%
19,Cc1n[nH]c(SCC(=O)c2c[nH]c3ccccc23)n1,0.146%
20,CCOC(=O)N1CCN(c2ncnc3c2cnn3-c2ccccc2)CC1,-2.31%
21,C=CCN1C(=O)C(CC(=O)Nc2ccccc2)S/C1=N\c1ccc(C(C)=O)cc1 (centres unmarked),-1.95%
22,O=C(NCC1CCN(C(=O)c2ccc3c(c2)OCO3)CC1)c1ccc2c(c1)OCO2,-1.61%
23,Cc1ccccc1OCC(=O)NC1CCCCC1,-1.65%

# Source: PMC6919601, “Identification of Plasmodium dipeptidyl aminopeptidase allosteric inhibitors by high throughput screening” (PLoS ONE, 2019)
